# Measured values: the supplement of paper PMC8728848
# This is one part of the list.
# B1: Gal 3C (Homo sapiens), P17931 (protein)
# chain: YGAPAGPLIVPYNLPLPGGVVPRMLITILGTVKPNANRIALDFQRGNDVAFHFNPRFNENNRRVIVCNTKLDNNWGREERQSVFPFESGKPFKIQVLVEPDHFKVAVNDAHLLQYNHRVKKLNEISKLGISGDIDLTSASYTMI
# Columns and labels:
# Assay in all cases: glycan array binding signal (z-score within array); higher = stronger binding
# Details in all cases: glycan notation: IUPAC condensed, linker removed
# [1] = target: Gal(b1-3)GlcNAc(b1-6)GalNAc
# Procedure, shortened: (§1)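 Glycan array data came from 3228 arrays in the Consortium for Functional Glycomics database, and only arrays with an available protein sequence were kept. Glycan names were put into IUPAC-condensed notation, and columns mapping to the same glycan were averaged. The binding signal is a within-array Z-score, averaged across arrays of one protein sequence run at different concentrations or buffers and across linkers. A negative Z-score can be read as non-binding.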
# [2] = target: Gal(b1-3)GlcNAc(b1-6)[Gal(b1-3)]GalNAc
# Procedure, shortened: as §1
# Gal(b1-3)GlcNAc6S = target: Gal(b1-3)GlcNAc6S
# Procedure, shortened: as §1
# [3] = target: Gal(b1-3)[Fuc(a1-4)]GlcNAc
# Procedure, shortened: as §1
# [4] = target: Gal(b1-3)[Fuc(a1-4)]GlcNAc(b1-2)Man
# Procedure, shortened: as §1
# [5] = target: Gal(b1-3)[Fuc(a1-4)]GlcNAc(b1-2)Man(a1-3)[Gal(b1-3)[Fuc(a1-4)]GlcNAc(b1-2)Man(a1-6)]Man(b1-4)GlcNAc(b1-4)[Fuc(a1-6)]GlcNAc
# Procedure, shortened: as §1
# [6] = target: Gal(b1-3)[Fuc(a1-4)]GlcNAc(b1-3)Gal(b1-3)[Fuc(a1-4)]GlcNAc
# Procedure, shortened: as §1
# [7] = target: Gal(b1-3)[Fuc(a1-4)]GlcNAc(b1-3)Gal(b1-4)[Fuc(a1-3)]GlcNAc
# Procedure, shortened: as §1
# [8] = target: Gal(b1-3)[Fuc(a1-4)]GlcNAc(b1-6)GalNAc
# Procedure, shortened: as §1
# [9] = target: Gal(b1-3)[GlcNAc(b1-6)]GalNAc
# Procedure, shortened: as §1
# [10] = target: Gal(b1-3)[Neu5Ac(a2-6)]GalNAc
# Procedure, shortened: as §1
# [11] = target: Gal(b1-3)[Neu5Ac(a2-6)]GlcNAc(b1-4)Gal(b1-4)Glc
# Procedure, shortened: as §1
# [12] = target: Gal(b1-3)[Neu5Ac(b2-6)]GalNAc
# Procedure, shortened: as §1
# Gal(b1-4)Gal = target: Gal(b1-4)Gal
# Procedure, shortened: as §1
# [13] = target: Gal(b1-4)GalNAc(a1-3)[Fuc(a1-2)]Gal(b1-4)GlcNAc
# Procedure, shortened: as §1
# [14] = target: Gal(b1-4)GalNAc(b1-3)[Fuc(a1-2)]Gal(b1-4)GlcNAc
# Procedure, shortened: as §1
# Gal(b1-4)Glc = target: Gal(b1-4)Glc
# Procedure, shortened: as §1
# Gal(b1-4)Glc6S = target: Gal(b1-4)Glc6S
# Procedure, shortened: as §1
# Gal(b1-4)GlcNAc = target: Gal(b1-4)GlcNAc
# Procedure, shortened: as §1
# [15] = target: Gal(b1-4)GlcNAc(a1-6)Gal(b1-4)GlcNAc
# Procedure, shortened: as §1
# Gal(b1-4)GlcNAc(b1-2)Man = target: Gal(b1-4)GlcNAc(b1-2)Man
# Procedure, shortened: as §1
# [16] = target: Gal(b1-4)GlcNAc(b1-2)Man(a1-3)Man(b1-4)GlcNAc(b1-4)GlcNAc
# Procedure, shortened: as §1
# [17] = target: Gal(b1-4)GlcNAc(b1-2)Man(a1-3)[Gal(b1-4)GlcNAc(b1-2)Man(a1-6)]Man(b1-4)GlcNAc(b1-4)GlcNAc
# Procedure, shortened: as §1
# [18] = target: Gal(b1-4)GlcNAc(b1-2)Man(a1-3)[Gal(b1-4)GlcNAc(b1-2)Man(a1-6)]Man(b1-4)GlcNAc(b1-4)[Fuc(a1-6)]GlcNAc
# Procedure, shortened: as §1
# [19] = target: Gal(b1-4)GlcNAc(b1-2)Man(a1-3)[Gal(b1-4)GlcNAc(b1-2)Man(a1-6)][Gal(b1-4)GlcNAc(b1-4)]Man(b1-4)GlcNAc(b1-4)[Fuc(a1-6)]GlcNAc
# Procedure, shortened: as §1
# [20] = target: Gal(b1-4)GlcNAc(b1-2)Man(a1-3)[Gal(b1-4)GlcNAc(b1-2)Man(a1-6)][GlcNAc(b1-4)]Man(b1-4)GlcNAc(b1-4)[Fuc(a1-6)]GlcNAc
# Procedure, shortened: as §1
# [21] = target: Gal(b1-4)GlcNAc(b1-2)Man(a1-3)[GlcNAc(b1-2)Man(a1-6)]Man(b1-4)GlcNAc(b1-4)GlcNAc
# Procedure, shortened: as §1
# [22] = target: Gal(b1-4)GlcNAc(b1-2)Man(a1-3)[GlcNAc(b1-4)][Gal(b1-4)GlcNAc(b1-2)Man(a1-6)]Man(b1-4)GlcNAc(b1-4)GlcNAc
# Procedure, shortened: as §1
# [23] = target: Gal(b1-4)GlcNAc(b1-2)Man(a1-3)[Man(a1-6)]Man(b1-4)GlcNAc(b1-4)GlcNAc
# Procedure, shortened: as §1
# [24] = target: Gal(b1-4)GlcNAc(b1-2)Man(a1-6)Man(b1-4)GlcNAc(b1-4)GlcNAc
# Procedure, shortened: as §1
# [25] = target: Gal(b1-4)GlcNAc(b1-2)Man(a1-6)[GlcNAc(b1-2)Man(a1-3)]Man(b1-4)GlcNAc(b1-4)GlcNAc
# Procedure, shortened: as §1
# [26] = target: Gal(b1-4)GlcNAc(b1-2)Man(a1-6)[Man(a1-3)]Man(b1-4)GlcNAc(b1-4)GlcNAc
# Procedure, shortened: as §1
# [27] = target: Gal(b1-4)GlcNAc(b1-2)[Gal(b1-4)GlcNAc(b1-4)]Man(a1-3)[Gal(b1-4)GlcNAc(b1-2)Man(a1-6)]Man(b1-4)GlcNAc(b1-4)GlcNAc
# Procedure, shortened: as §1
# [28] = target: Gal(b1-4)GlcNAc(b1-2)[Gal(b1-4)GlcNAc(b1-4)]Man(a1-3)[Gal(b1-4)GlcNAc(b1-2)[Gal(b1-4)GlcNAc(b1-6)]Man(a1-6)]Man(b1-4)GlcNAc(b1-4)GlcNAc
# Procedure, shortened: as §1
# [29] = target: Gal(b1-4)GlcNAc(b1-2)[Gal(b1-4)GlcNAc(b1-4)]Man(a1-3)[GlcNAc(b1-4)][Gal(b1-4)GlcNAc(b1-2)Man(a1-6)]Man(b1-4)GlcNAc(b1-4)GlcNAc
# Procedure, shortened: as §1
# [30] = target: Gal(b1-4)GlcNAc(b1-2)[Gal(b1-4)GlcNAc(b1-4)]Man(a1-3)[GlcNAc(b1-4)][Gal(b1-4)GlcNAc(b1-2)[Gal(b1-4)GlcNAc(b1-6)]Man(a1-6)]Man(b1-4)GlcNAc(b1-4)GlcNAc
# Procedure, shortened: as §1
# [31] = target: Gal(b1-4)GlcNAc(b1-2)[Gal(b1-4)GlcNAc(b1-6)]Man(a1-6)[Gal(b1-4)GlcNAc(b1-2)Man(a1-3)]Man(b1-4)GlcNAc(b1-4)GlcNAc
# Procedure, shortened: as §1
# [32] = target: Gal(b1-4)GlcNAc(b1-2)[Gal(b1-4)GlcNAc(b1-6)]Man(a1-6)[Gal(b1-4)GlcNAc(b1-2)Man(a1-3)]Man(b1-4)GlcNAc(b1-4)[Fuc(a1-6)]GlcNAc
# Procedure, shortened: as §1
# [33] = target: Gal(b1-4)GlcNAc(b1-2)[Gal(b1-4)GlcNAc(b1-6)]Man(a1-6)[GlcNAc(b1-4)][Gal(b1-4)GlcNAc(b1-2)Man(a1-3)]Man(b1-4)GlcNAc(b1-4)GlcNAc
# Procedure, shortened: as §1
# [34] = target: Gal(b1-4)GlcNAc(b1-2)[Gal(b1-4)GlcNAc(b1-6)]Man(a1-6)[GlcNAc(b1-4)][Gal(b1-4)GlcNAc(b1-2)[Gal(b1-4)GlcNAc(b1-4)]Man(a1-3)]Man(b1-4)GlcNAc(b1-4)[Fuc(a1-6)]GlcNAc
# Procedure, shortened: as §1
# [35] = target: Gal(b1-4)GlcNAc(b1-3)Gal(b1-3)GalNAc
# Procedure, shortened: as §1
# [36] = target: Gal(b1-4)GlcNAc(b1-3)Gal(b1-3)GlcNAc
# Procedure, shortened: as §1
# [37] = target: Gal(b1-4)GlcNAc(b1-3)Gal(b1-4)Glc
# Procedure, shortened: as §1
# [38] = target: Gal(b1-4)GlcNAc(b1-3)Gal(b1-4)GlcNAc
# Procedure, shortened: as §1
# [39] = target: Gal(b1-4)GlcNAc(b1-3)Gal(b1-4)GlcNAc(b1-2)Man(a1-3)[Gal(b1-4)GlcNAc(b1-3)Gal(b1-4)GlcNAc(b1-2)Man(a1-6)]Man(b1-4)GlcNAc(b1-4)GlcNAc
# Procedure, shortened: as §1
binder,measurement,setting,value
B1,glycan array binding signal (z-score),[1],-0.312
same,glycan array binding signal (z-score),[2],-0.277
same,glycan array binding signal (z-score),Gal(b1-3)GlcNAc6S,-0.277
same,glycan array binding signal (z-score),[3],-0.306
same,glycan array binding signal (z-score),[4],-0.245
same,glycan array binding signal (z-score),[5],-0.276
same,glycan array binding signal (z-score),[6],-0.297
same,glycan array binding signal (z-score),[7],-0.283
same,glycan array binding signal (z-score),[8],-0.209
same,glycan array binding signal (z-score),[9],-0.251
same,glycan array binding signal (z-score),[10],-0.263
same,glycan array binding signal (z-score),[11],-0.34
same,glycan array binding signal (z-score),[12],-0.309
same,glycan array binding signal (z-score),Gal(b1-4)Gal,-0.349
same,glycan array binding signal (z-score),[13],0.464
same,glycan array binding signal (z-score),[14],-0.313
same,glycan array binding signal (z-score),Gal(b1-4)Glc,-0.301
same,glycan array binding signal (z-score),Gal(b1-4)Glc6S,-0.309
same,glycan array binding signal (z-score),Gal(b1-4)GlcNAc,-0.31
same,glycan array binding signal (z-score),[15],-0.32
same,glycan array binding signal (z-score),Gal(b1-4)GlcNAc(b1-2)Man,-0.244
same,glycan array binding signal (z-score),[16],-0.287
same,glycan array binding signal (z-score),[17],-0.328
same,glycan array binding signal (z-score),[18],-0.22
same,glycan array binding signal (z-score),[19],-0.295
same,glycan array binding signal (z-score),[20],-0.329
same,glycan array binding signal (z-score),[21],-0.285
same,glycan array binding signal (z-score),[22],-0.327
same,glycan array binding signal (z-score),[23],-0.221
same,glycan array binding signal (z-score),[24],-0.321
same,glycan array binding signal (z-score),[25],-0.308
same,glycan array binding signal (z-score),[26],-0.365
same,glycan array binding signal (z-score),[27],-0.32
same,glycan array binding signal (z-score),[28],-0.253
same,glycan array binding signal (z-score),[29],-0.345
same,glycan array binding signal (z-score),[30],-0.302
same,glycan array binding signal (z-score),[31],-0.222
same,glycan array binding signal (z-score),[32],-0.262
same,glycan array binding signal (z-score),[33],-0.314
same,glycan array binding signal (z-score),[34],-0.271
same,glycan array binding signal (z-score),[35],-0.286
same,glycan array binding signal (z-score),[36],0.127
same,glycan array binding signal (z-score),[37],-0.18
same,glycan array binding signal (z-score),[38],0.902
same,glycan array binding signal (z-score),[39],1.65
